{"source": "PubChem BioAssay (Tox21)", "key": {"[1]": {"experiment": "qHTS assay to identify small molecule agonists of H2AX (AID 1224845; active = well fitted activation curve with a large enough effect in the signal ratio in the repeat runs, not every such curve was filed as active; inconclusive = weak or mixed curves; the % refers to the signal ratio; also: potency is read from the fitted curve at half-maximal effect; as to activation (H2AX phosphorylation): % is scaled to controls: 0 for no effect and ±100 for the full control effect)", "conditions": "CHO-K1 phospho-H2AX Ser139 HTRF, 3 h; activation (H2AX phosphorylation): at 154 µM (top of the series) unless noted", "how_it_was_run": "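Wild-type CHO-K1 cells plated overnight, then exposed 3 hr at 37C to compounds at 15 concentrations (0.76% DMSO). Lysed, then HTRF anti-pH2AX(S139)-cryptate/anti-H2AX-d2 detection after 24 hr at room temperature; emissions 665 and 620 nm.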"}, "[2]": {"experiment": "qHTS RealTime-Glo MT Cell Viability Assay in HepG2 cells - 24 hour (AID 1224867); also: potency is read from the fitted curve at half-maximal effect; nearly all actives have a fitted effect of over 50% in size", "how_it_was_run": "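Cells + NanoLuc/prosubstrate dispensed (600 cells/well) → 5 h at 37 C/5% CO2 → compounds in DMSO transferred → 40 h incubation at 37 C, luminescence read at 0, 8, 16, 24, 32, 40 h.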"}, "[3]": {"experiment": "qHTS RealTime-Glo MT Cell Viability Assay in HepG2 cells - 40 hour (AID 1224870); also: nearly all actives have a fitted effect of over 50% in size; also: potency is read from the fitted curve at half-maximal effect", "how_it_was_run": "(§1)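 HepG2 cells mixed with RealTime-Glo MT reagents (NanoLuc plus cell-permeant prosubstrate) were seeded at 600 cells/well, incubated 5 h at 37 C/5% CO2, then pinned with compounds in DMSO; nonlytic luminescence tracked viability during 40 h treatment.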"}, "[4]": {"experiment": "qHTS RealTime-Glo MT Cell Viability Assay in HEK293 cells - 16 hour (AID 1224872)", "how_it_was_run": "(§2)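 Tox21 10K qHTS, HEK293, 600 cells/well, RealTime-Glo reagent co-dispensed with cells; 5 h preincubation, compound by pintool, 37 C, luminescence at 0–40 h.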"}, "[5]": {"experiment": "qHTS RealTime-Glo MT Cell Viability Assay in HepG2 cells - 8 hour (AID 1224873)", "how_it_was_run": "as §1"}, "[6]": {"experiment": "A CellTox Green Cytotoxicity Assay to monitor cytotoxicity in HepG2 cells - 24 hour (AID 1224878)", "how_it_was_run": "(§3)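 First, HepG2 cells (600/well) mixed with reagent were plated; second, after 5 h at 37 C they received compounds via pintool; third, fluorescence was measured at 0 h through 40 h at 8 h intervals.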"}, "[7]": {"experiment": "qHTS RealTime-Glo MT Cell Viability Assay in HEK293 cells - 0 hour (AID 1224880)", "how_it_was_run": "(§4)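 600 HEK293 cells per well, dispensed already mixed with RealTime-Glo MT reagents. Compound dosing came 5 h later. The same wells were read for luminescence at 0, 8, 16, 24, 32 and 40 h of exposure at 37 C.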"}, "[8]": {"experiment": "qHTS assay to identify small molecule agonists of the estrogen related receptor (ERR) signaling pathway from Tox21 library (AID 1224849; calls by dose curve)", "conditions": "ERR reporter cell line, ONE-Glo luciferase, 18 h; at 92.4 µM (top of the series)", "how_it_was_run": "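Quantitative HTS in agonist format: NTP ERR cell line, compounds transferred in DMSO after 6 h plating, 18 h incubation at 37 C, ONE-Glo luminescence endpoint.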"}, "[9]": {"experiment": "A CellTox Green Cytotoxicity Assay to monitor cytotoxicity in HEK293 cells - 40 hour (AID 1224871)", "how_it_was_run": "(§5)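 Dead-cell fluorescence measured kinetically: asymmetric cyanine dye, HEK293, 600 cells/well, 5 h settle, 23 nL cpd/DMSO, 37 C, reads 0–40 h every 8 h.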"}, "[10]": {"experiment": "qHTS RealTime-Glo MT Cell Viability Assay in HEK293 cells - 40 hour (AID 1224874)", "conditions": "RealTime-Glo luminescence; max response: stronger effect = lower value", "how_it_was_run": "as §4"}, "[11]": {"experiment": "A CellTox Green Cytotoxicity Assay to monitor cytotoxicity in HepG2 cells - 16 hour (AID 1224876)", "how_it_was_run": "as §3"}, "[12]": {"experiment": "A CellTox Green Cytotoxicity Assay to monitor cytotoxicity in HepG2 cells - 40 hour (AID 1224879)", "how_it_was_run": "as §3"}, "[13]": {"experiment": "A CellTox Green Cytotoxicity Assay to monitor cytotoxicity in HEK293 cells - 32 hour (AID 1224881)", "how_it_was_run": "as §5"}, "[14]": {"experiment": "qHTS RealTime-Glo MT Cell Viability Assay in HEK293 cells - 32 hour (AID 1224868)", "how_it_was_run": "as §2"}, "[15]": {"experiment": "A CellTox Green Cytotoxicity Assay to monitor cytotoxicity in HEK293 cells - 0 hour (AID 1224869)", "conditions": "CellTox Green fluorescence", "how_it_was_run": "as §5"}, "[16]": {"experiment": "A CellTox Green Cytotoxicity Assay to monitor cytotoxicity in HEK293 cells - 24 hour (AID 1224875)", "how_it_was_run": "as §5"}}, "note": "Where “and” joins values, the source holds several entries; their conditions need not be identical. Equal entries are not always repeated. This list was built around the results that the source calls inconclusive (neither active nor inactive); the mix of calls is not that of the screen. For some assays here: Potencies beside an inconclusive call are fits to weak or partial responses and may not hold up. A structure can be active in one record and inactive in another. Calls of active or inactive are those of the source. Unless noted, calls follow the shape of the dose curve; as a rule, active = well fitted curve in the direction sought with a large enough effect in the repeat runs; inconclusive = weak or mixed curves; inactive = no such curve, though single readings can be large; an effect the other way counts as inactive or inconclusive. For activity change, positive = activation in this document: % is scaled to controls: 0 for no effect and ±100 for the full control effect; nearly all actives have a fitted effect of over 15% in size. Tags tell the direction and shape of the fitted curve or compound fluorescence and quenching."}
{"molecule": "C[C@@H](NCCCc1cccc(C(F)(F)F)c1)c1cccc2ccccc12", "values": [{"measurement": "Potency", "setting": "[1]", "value": "active: 49.2 µM"}, {"measurement": "Potency", "setting": "[2]", "value": "active: 16.9 µM"}, {"measurement": "Potency", "setting": "[3]", "value": "active: 15.1 µM"}, {"measurement": "Potency", "setting": "[4]", "value": "active: 23.9 µM"}, {"measurement": "Potency", "setting": "[5]", "value": "active: 23.9 µM"}, {"measurement": "Potency", "setting": "[6]", "value": "active: 16.9 µM"}, {"measurement": "Potency", "setting": "[7]", "value": "inconclusive: 21.3 µM [rising, partial curve]"}]}
{"molecule": "c1ccc(Nc2cccc3ccccc23)cc1", "values": [{"measurement": "Potency", "setting": "[1]", "value": "inconclusive: 102 µM [activator, partial curve] and inconclusive: 127 µM [activator, single point]"}, {"measurement": "activity change, positive = activation", "setting": "[8]", "value": "active: -11.6% and inconclusive: -12.4%"}, {"measurement": "Potency", "setting": "[9]", "value": "inconclusive: 55.7 µM [activator, single point]"}, {"measurement": "Potency", "setting": "[4]", "value": "inconclusive: 55.7 µM [cytotoxic, partial curve]"}, {"measurement": "Potency", "setting": "[5]", "value": "inconclusive: 44.2 µM [falling, partial curve]"}, {"measurement": "Potency", "setting": "[10]", "value": "inconclusive: 39.4 µM [cytotoxic, partial curve]"}, {"measurement": "Potency", "setting": "[11]", "value": "inconclusive: 61.7 µM [activator, single point]"}, {"measurement": "Potency", "setting": "[6]", "value": "inconclusive: 55.7 µM [activator, partial curve, poor fit] and inconclusive: 61.7 µM [activator, single point]"}, {"measurement": "Potency", "setting": "[12]", "value": "inconclusive: 55.7 µM [activator, single point] and inconclusive: 61.7 µM [activator, single point]"}]}
{"molecule": "[Cl][Bi]([Cl])([c]1ccccc1)([c]1ccccc1)[c]1ccccc1", "values": [{"measurement": "activation (H2AX phosphorylation)", "setting": "[1]", "value": "inconclusive: -1.13%"}, {"measurement": "Potency", "setting": "[3]", "value": "active: 7.71 µM"}, {"measurement": "Potency", "setting": "[4]", "value": "active: 4.87 µM"}, {"measurement": "Potency", "setting": "[6]", "value": "active: 7.71 µM"}, {"measurement": "Potency", "setting": "[7]", "value": "inconclusive: 27.4 µM [falling, partial curve, poor fit]"}, {"measurement": "Potency", "setting": "[13]", "value": "active: 24.4 µM"}]}
{"molecule": "O=c1n(CCO)c(=O)n(CCO)c(=O)n1CCO", "values": [{"measurement": "Potency", "setting": "[1]", "value": "inactive"}, {"measurement": "Potency", "setting": "[14]", "value": "inactive"}, {"measurement": "Potency", "setting": "[15]", "value": "active: 43.6 µM"}, {"measurement": "Potency", "setting": "[6]", "value": "active: 38.9 µM"}, {"measurement": "Potency", "setting": "[12]", "value": "active: 43.6 µM"}]}
{"molecule": "O=C1C=CC(=O)N1c1ccccc1", "values": [{"measurement": "Potency", "setting": "[1]", "value": "inconclusive: 14.2 µM [activator, partial curve]"}, {"measurement": "Potency", "setting": "[4]", "value": "active: 15.5 µM"}, {"measurement": "Potency", "setting": "[5]", "value": "active: 19.5 µM"}, {"measurement": "Potency", "setting": "[16]", "value": "active: 12.3 µM"}, {"measurement": "Potency", "setting": "[11]", "value": "active: 19.5 µM"}, {"measurement": "Potency", "setting": "[12]", "value": "active: 12.3 µM"}]}
{"molecule": "Cc1ccc(-n2[nH]c(C)c(N=Nc3cccc(-c4cccc(C(=O)O)c4)c3O)c2=O)cc1C", "values": [{"measurement": "Potency", "setting": "[1]", "value": "inconclusive: 5.52 µM [falling, full curve]"}, {"measurement": "Potency", "setting": "[2]", "value": "inconclusive: 23.9 µM [falling, partial curve, poor fit]"}, {"measurement": "Potency", "setting": "[3]", "value": "inactive"}, {"measurement": "Potency", "setting": "[4]", "value": "inconclusive: 26.8 µM [cytotoxic, partial curve, poor fit]"}]}
{"molecule": "CCN(CC)CCOC(=O)C1(C2CCCCC2)CCCCC1", "values": [{"measurement": "Potency", "setting": "[1]", "value": "inconclusive: 49.2 µM [activator, partial curve, poor fit]"}, {"measurement": "Potency", "setting": "[14]", "value": "inconclusive: 21.3 µM [cytotoxic, partial curve]"}, {"measurement": "Potency", "setting": "[4]", "value": "active: 21.3 µM"}, {"measurement": "Potency", "setting": "[10]", "value": "inconclusive: 26.8 µM [cytotoxic, partial curve]"}, {"measurement": "Potency", "setting": "[16]", "value": "active: 23.9 µM"}, {"measurement": "Potency", "setting": "[11]", "value": "active: 23.9 µM"}, {"measurement": "Potency", "setting": "[7]", "value": "inconclusive: 21.3 µM [rising, single point]"}, {"measurement": "Potency", "setting": "[13]", "value": "active: 23.9 µM"}]}
{"molecule": "CN[C@H]1CC[C@@H](c2ccc(Cl)c(Cl)c2)c2ccc(S(N)(=O)=O)cc21", "values": [{"measurement": "Potency", "setting": "[1]", "value": "inconclusive: 50.5 µM [activator]"}, {"measurement": "Potency", "setting": "[3]", "value": "active: 21.9 µM"}, {"measurement": "Potency", "setting": "[5]", "value": "active: 49 µM"}, {"measurement": "Potency", "setting": "[10]", "value": "active: 19.5 µM"}, {"measurement": "Potency", "setting": "[12]", "value": "active: 13.8 µM"}, {"measurement": "Potency", "setting": "[7]", "value": "inconclusive: 21.9 µM [rising, partial curve]"}, {"measurement": "Potency", "setting": "[13]", "value": "active: 24.5 µM"}]}
{"molecule": "O=C(O)c1ccc(S(=O)(=O)N(Cl)Cl)cc1", "values": [{"measurement": "Potency", "setting": "[1]", "value": "inactive"}, {"measurement": "Potency", "setting": "[14]", "value": "active: 49.3 µM"}]}
{"molecule": "C/C=C/C=N/NC(=O)c1ccncc1", "values": [{"measurement": "Potency", "setting": "[1]", "value": "inconclusive: 49.2 µM"}, {"measurement": "Potency", "setting": "[14]", "value": "inconclusive: 26.8 µM [rising, partial curve, poor fit]"}, {"measurement": "Potency", "setting": "[15]", "value": "inconclusive: 26.8 µM [activator, single point]"}, {"measurement": "Potency", "setting": "[16]", "value": "inconclusive: 26.8 µM [activator, single point]"}, {"measurement": "Potency", "setting": "[13]", "value": "inconclusive: 26.8 µM [activator, single point]"}]}
{"molecule": "CC1=C(/C=C/C(C)=C/C=C/C(C)=C\\C=O)C(C)(C)CCC1", "values": [{"measurement": "Potency", "setting": "[1]", "value": "inconclusive: 107 µM [activator]"}, {"measurement": "Potency", "setting": "[9]", "value": "inconclusive: 52 µM [activator, single point]"}, {"measurement": "Potency", "setting": "[4]", "value": "inconclusive: 46.4 µM [cytotoxic, partial curve]"}, {"measurement": "Potency", "setting": "[16]", "value": "inconclusive: 52 µM [activator, single point]"}, {"measurement": "Potency", "setting": "[12]", "value": "inconclusive: 52 µM [activator, single point]"}, {"measurement": "Potency", "setting": "[13]", "value": "inconclusive: 52 µM [activator, single point]"}]}
